The text below walks through data of PubChem BioAssay AID256 (DTP/NCI, 2004).

In this assay the test system is CD2F1 mice, L1210 leukemia ip, survival T/C. Nature of the assay: NCI In Vivo Anticancer Drug Screen. Data for tumor model L1210 Leukemia (intraperitoneal) in CD2F1 (CDF1) mice. The following applies: higher = longer survival. As for the experimental part: The antitumor activity of compounds was measured in mice bearing transplantable tumors. Survival or tumor size were measured and the results are expressed as the measurement made in the treated group (T) divided by the measurement made in the vehicle treated control group (C). The tumor model used in this assay is L1210 Leukemia (intraperitoneal) in CD2F1 (CDF1) mice

[1] abbreviates: endpoint: median survival time, dose: 12.5 mg/kg/injection, schedule: Q04DX003 (ip), vehicle: saline.

Inconclusive results and toxic doses are left out. The source holds more than one record for some entries. The list is limited to them. An entry can have further records. The records of an entry are repeated measurements (runs, samples, wells, individuals or studies). A tag in brackets gives the origin of a value. Letters hold for one entry only. Residues, ends and D or L forms follow the SMILES beside them. *: point of attachment. Trt = c1ccc(C(c2ccccc2)(c2ccccc2)*)cc1; Cbz = O=C(OCc1ccccc1)*

For `N[C@H](C(=O)O)[C@@H]1CC(Cl)=NO1`, the T/C (endpoint: median survival time, dose: 12.0 mg/kg/injection, schedule: Q01DX009 (ip), vehicle: saline) is 87 % of control, 114 % of control, 159 % of control.
Consider `CC(C)OC(=O)c1cc([N+](=O)[O-])c(Sc2ncnc3nc[nH]c23)c([N+](=O)[O-])c1`, for which the T/C (endpoint: mean survival time, dose: 75.0 mg/kg/injection, schedule: Q01DX005 (ip), vehicle: other) was 109 % of control and 164 % of control.
For the compound `O=P(Oc1ccccc1)(Oc1ccccc1)N(CCCl)CCCl`, for the setting “endpoint: mean survival time, dose: 200.0 mg/kg/injection, schedule: Q01DX009 (ip), vehicle: water”, the T/C was 120 % of control and 178 % of control.
`CCOC(=O)Nc1cc(NC(C)/C(=N/O)c2ccccc2)c([N+](=O)[O-])c(N)n1` (stereo not drawn): where the note is “endpoint: median survival time, dose: 50.0 mg/kg/injection, schedule: Q01DX005 (ip), vehicle: Klucel (hydroxypropylcellulose) (HPC)”, the T/C was 103 % of control and 154 % of control.
As for `CC1CC(C)(C)C(C[NH-])C1[NH-].[Cl][Pt+2][Cl]` (stereo not drawn), the T/C by setting is: (endpoint: mean survival time, dose: 6.25 mg/kg/injection, schedule: Q04DX003 (ip), vehicle: saline) 109 % of control and 180 % of control; (endpoint: mean survival time, dose: 12.5 mg/kg/injection, schedule: Q04DX003 (ip), vehicle: saline) 117 % of control and 180 % of control.
Turning to `CC(C)(C)N1CC1CNC(=O)C(=O)NCC1CN1C(C)(C)C` (stereo not drawn), the T/C (endpoint: mean survival time, dose: 25.0 mg/kg/injection, schedule: Q01DX009 (ip), vehicle: saline with Tween-80) is 105 % of control and 156 % of control.
Consider `CC(C)=CC(=O)OC1C2C(C)=CC(=O)C(O)C2(C)C2C3(O)OCC24C(CC(=O)OC14)C(C)C3O` (stereo not drawn), for which the T/C (endpoint: median survival time, dose: 4.0 mg/kg/injection, schedule: Q01DX009 (ip), vehicle: distilled water + Tween-80 + alcohol) was 86 % of control and 180 % of control.
Consider `CCCC(CC)(C[NH-])C[NH-].[Cl][Pt+2][Cl]`, for which the T/C (endpoint: mean survival time, dose: 3.12 mg/kg/injection, schedule: Q04DX003 (ip), vehicle: saline) is 102 % of control and 155 % of control; the T/C (endpoint: mean survival time, dose: 50.0 mg/kg/injection, schedule: Q04DX003 (ip), vehicle: saline) is 123 % of control and 178 % of control.
For the compound `O=C(O)C(O)C(O)C(=O)O.[NH-]C1CCCCCC1[NH-].[Pt+2]` (stereo not drawn), under “endpoint: mean survival time, dose: 40.0 mg/kg/injection, schedule: Q04DX003 (ip), vehicle: dextrose”, the T/C is 113 % of control and 157 % of control.
For the compound `O=C1c2c(O)ccc(O)c2C(=O)c2c(NCCNCCO)ccc(NCCNCCO)c21`, the T/C (endpoint: median survival time, dose: 4.0 mg/kg/injection, schedule: Q01DX009 (ip), vehicle: acid diluted with saline) was 100 % of control and 159 % of control.
With `O=C(O)/C(O)=C(/O)C(=O)O.[NH-]C1CCCCC1[NH-].[Pt+2]`, the T/C (endpoint: median survival time, dose: 6.25 mg/kg/injection, schedule: Q04DX003 (ip), vehicle: saline) is 108 % of control and 168 % of control; the T/C under setting [1] is 107 % of control and 183 % of control.
In the case of `O=C1c2ccccc2C(=O)c2c(NCCNCCO)ccc(O)c21`, for the setting “endpoint: mean survival time, dose: 80.0 mg/kg/injection, schedule: Q01DX009 (ip), vehicle: suspension in saline”, the T/C was 107 % of control and 156 % of control.
As for `CC(=O)NC(C=O)CC(C=O)CO` (stereo not drawn), where the note is “endpoint: mean survival time, dose: 200.0 mg/kg/injection, schedule: Q04DX003 (ip), vehicle: saline”, the T/C was 104 % of control and 164 % of control.
Consider `CN(C)c1ccc(N=Nc2ccc(S(=O)(=O)O)cc2)cc1.CN(C)c1ccc(N=Nc2ccc(S(=O)(=O)O)cc2)cc1.[NH-]C1CCCCC1[NH-].[Pt+2]`, for which the T/C reads like this: under setting [1], 102 % of control and 155 % of control; (endpoint: median survival time, dose: 25.0 mg/kg/injection, schedule: Q04DX003 (ip), vehicle: saline) 98 % of control and 185 % of control; (endpoint: median survival time, dose: 50.0 mg/kg/injection, schedule: Q04DX003 (ip), vehicle: saline) 116 % of control and 181 % of control.
With `O=S(=O)(O)c1ccccc1.O=S(=O)(O)c1ccccc1.[NH-]C1CCCCC1[NH-].[Pt+2]`, for the setting “endpoint: mean survival time, dose: 2.0 mg/kg/injection, schedule: Q01DX009 (ip), vehicle: dextrose”, the T/C was 95 % of control and 175 % of control.
In the case of `CC(C)CC(NC(=O)C(N)Cc1ccc(N(CCCl)CCCl)cc1)C(=O)O` (stereo not drawn), the T/C (endpoint: mean survival time, dose: 16.0 mg/kg/injection, schedule: Q04DX003 (ip), vehicle: saline with Tween-80) was 153 % of control [sample A] and 106 % of control [sample B].
As to `Nc1nc(N)c2cc(CNc3ccc(C(=O)NC(CC(=O)O)C(=O)O)c(Cl)c3)ccc2n1` (stereo not drawn), the T/C (endpoint: mean survival time, dose: 20.0 mg/kg/injection, schedule: Q01DX001 (ip), vehicle: saline) was 122 % of control and 168 % of control.
Regarding `COC(=O)C(CSC(c1ccccc1)(c1ccccc1)c1ccccc1)NC(=O)C(CC(N)=O)NC(=O)OCc1ccccc1` (stereo not drawn) (Cbz-Asn-Cys(Trt)-OMe; configuration not given here), the T/C (endpoint: median survival time, dose: 400.0 mg/kg/injection, schedule: Q01DX009 (ip), vehicle: distilled water + Tween-80) was 97 % of control and 150 % of control.
